Assay results: publication PMC11995724, “Antibiotic target discovery by integrated phenotypic and activity-based profiling of electrophilic fragments” (Cell chemical biology, 2025)
Among all 3,200 compounds or so, about 75 (2%) showed an effect of 50% or more. The list shows a part of the results.

test system: T1, S. aureus MSSA476; parameters: species or system S. aureus MSSA476 (TSB) or V. cholerae SAD30 (LB); 384-well bacterial growth screen at 25 uM, OD600 relative to DMSO control; settings: relative growth, OD600, TSB; 25 µM; inhibitor
T1 construct: MSSA476

| Compound | % of control remaining [%] |
| --- | --- |
| CC(C)N(c1ccccc1)c1ccc(NC(=O)CCl)cc1 [6-I17, 2-chloro-N-{4-[phenyl(propan-2-yl)amino]phenyl}acetamide] | 116.78 |
| COC(=O)c1c(C)[nH]c(C(=O)C(C)Cl)c1C (stereo not drawn) [10-D22, methyl 5-(2-chloropropanoyl)-2,4-dimethyl-1H-pyrrole-3-carboxylate] | 111.25 |
| CC(Cl)C(=O)NCC(=O)Nc1ccc(F)c(F)c1F (stereo not drawn) [4-D20, 2-chloro-N-{[(2,3,4-trifluorophenyl)carbamoyl]methyl}propanamide] | 134.921 |
| CC(Cl)C(=O)N1CCc2ncsc2C1 (stereo not drawn) [7-C06, 2-chloro-1-{4H,5H,6H,7H-[1,3]thiazolo[5,4-c]pyridin-5-yl}propan-1-one] | 83.2025 |
| CC(C)Cc1nnc(NC(=O)CCl)s1 [4-A17, 2-chloro-N-[5-(2-methylpropyl)-1,3,4-thiadiazol-2-yl]acetamide] | 128.442 |
| C=CC(=O)NCC1CNC(=O)c2ccccc21 (stereo not drawn) [2-F17, N-[(1-oxo-1,2,3,4-tetrahydroisoquinolin-4-yl)methyl]prop-2-enamide] | 113.142 |
| COc1ccc(C=C(C#N)C(=O)Nc2ccc([N+](=O)[O-])cc2)cc1 [8-C05, 2-cyano-3-(4-methoxyphenyl)-N-(4-nitrophenyl)prop-2-enamide] | 123.817 |
| C=CC(=O)N[C@@H](CC(N)=O)c1cccc(Cl)c1 [1-I15, N-[(1S)-2-carbamoyl-1-(3-chlorophenyl)ethyl]prop-2-enamide] | 118.154 |
| O=C1C=CC(=O)N1c1ccc(Oc2ccccc2)cc1 [10-F17, 1-(4-phenoxyphenyl)-2,5-dihydro-1H-pyrrole-2,5-dione] | 36.875 |
| O=C(CCl)NCCc1cccs1 [5-L09, 2-chloro-N-[2-(thiophen-2-yl)ethyl]acetamide] | 102.732 |
| N#CC(=Cc1cccc2ccccc12)C(=O)NCc1ccccc1 [8-O19, N-benzyl-2-cyano-3-(naphthalen-1-yl)prop-2-enamide] | 104.896 |
| CCCC(=O)N1CCC(NC(=O)CCl)c2ccccc21 (stereo not drawn) [6-E16, N-(1-butanoyl-1,2,3,4-tetrahydroquinolin-4-yl)-2-chloroacetamide] | 92.5366 |
| Cc1cc(F)c(C(=O)CCl)cc1F [10-L19, 2-chloro-1-(2,5-difluoro-4-methylphenyl)ethan-1-one] | 135 |
| Cc1ccccc1N(CC(=O)N1CCCCC1)C(=O)C(C)Cl (stereo not drawn) [7-G20, 2-chloro-N-(2-methylphenyl)-N-[2-oxo-2-(piperidin-1-yl)ethyl]propanamide] | 106.75 |
| C=CC(=O)NCc1csc2nccn12 [3-J13, N-({imidazo[2,1-b][1,3]thiazol-3-yl}methyl)prop-2-enamide] | 118.764 |
| O=C(CCl)NCC1(c2ccccc2)CC1 [5-E15, 2-chloro-N-[(1-phenylcyclopropyl)methyl]acetamide] | 103.097 |
| C=CC(=O)N1CCC(Cc2ccccc2)CC1 [2-O10, 1-(4-benzylpiperidin-1-yl)prop-2-en-1-one] | 80.0696 |
| C=CC(=O)N1CCC(C(=O)Nc2nc3cc(F)ccc3n2CC)CC1 [3-I13, N-(1-ethyl-5-fluoro-1H-1,3-benzodiazol-2-yl)-1-(prop-2-enoyl)piperidine-4-carboxamide] | 110.405 |
| C=CC(=O)NCc1ccc(-n2cccn2)cc1 [1-M07, N-{[4-(1H-pyrazol-1-yl)phenyl]methyl}prop-2-enamide] | 108.308 |
| O=C(CCl)N1C[C@@H]2C[C@H]1CN2c1ccccc1 [5-E22, 2-chloro-1-[(1S,4S)-5-phenyl-2,5-diazabicyclo[2.2.1]heptan-2-yl]ethan-1-one] | 102.732 |
| C=CC(=O)N1CCC(C(=O)N2CC=CCC2)(c2ccccc2)CC1 [3-J06, 1-[4-phenyl-4-(1,2,3,6-tetrahydropyridine-1-carbonyl)piperidin-1-yl]prop-2-en-1-one] | 89.5081 |
| CC1CN(c2ccc(NC(=O)C(C#N)=Cc3ccco3)cc2)CC(C)O1 (stereo not drawn) [9-J09, 2-cyano-N-[4-(2,6-dimethylmorpholin-4-yl)phenyl]-3-(furan-2-yl)prop-2-enamide] | 92.5843 |
| CC(Cl)C(=O)NCc1ccon1 (stereo not drawn) [7-I13, 2-chloro-N-[(1,2-oxazol-3-yl)methyl]propanamide] | 91.6797 |
| C=CC(=O)N(CC)Cc1nc2ccsc2c(=O)[nH]1 [3-P16, N-ethyl-N-({4-oxo-3H,4H-thieno[3,2-d]pyrimidin-2-yl}methyl)prop-2-enamide] | 82.1942 |
| O=C(CCl)Nc1c(F)c(F)c(F)c(F)c1F [4-L08, 2-chloro-N-(2,3,4,5,6-pentafluorophenyl)acetamide] | 104.05 |
| O=C(CCl)NOCc1ccccc1 [4-H22, N-(benzyloxy)-2-chloroacetamide] | 101 |
| C=CC(=O)N1CC(C)c2ccc(S(N)(=O)=O)cc21 (stereo not drawn) [3-L16, 3-methyl-1-(prop-2-enoyl)-2,3-dihydro-1H-indole-6-sulfonamide] | 119.112 |
| C=CC(=O)N1CCCC1(COC)C(N)=O (stereo not drawn) [3-K07, 2-(methoxymethyl)-1-(prop-2-enoyl)pyrrolidine-2-carboxamide] | 97.5185 |
| C=CC(=O)N1CCC(C(=O)NC2(Cc3ccccc3)CCCC2)CC1 [3-H12, N-(1-benzylcyclopentyl)-1-(prop-2-enoyl)piperidine-4-carboxamide] | 74.532 |
| C=CC(=O)N1CCC(C(=O)NC2(c3ccc(F)cc3F)CCC2)CC1 [3-M04, N-[1-(2,4-difluorophenyl)cyclobutyl]-1-(prop-2-enoyl)piperidine-4-carboxamide] | 92.6426 |
